Laboratory results reported in PubChem BioAssay AID761 (NMMLSC, 2007).
The whole screen tested about 190,000 compounds, of which about 400 (0.21%) were called active. The shares of active, inactive and inconclusive entries below differ from those in the screen.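 Rule for the calls: active = percent activity GTP binding at least 20 points away from the 100% baseline, either down as inhibitor or up as activator; inconclusive = compound flagged as likely green fluorescent from well-wide comparison; inactive = the rest.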

target: Cell division control protein 42 homolog (Homo sapiens) (UniProt P60953); experiment: wildtype Cdc42 fluorescent GTP binding changes, either direction – biochemical, multiplex bead flow cytometry, Bodipy-GTP, primary screen (AID 761); details: GST-Cdc42 beads, at 10 µM, actives lie on both sides;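 note: median bead fluorescence of bound Bodipy-FL-GTP at 100 nM; 0% = excess unlabeled GTP control and 100% = no compound control; below 100% means less GTP binding so inhibitor and above means activator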
Chain of UniProt P60953 (P60953 whole entry, looked up): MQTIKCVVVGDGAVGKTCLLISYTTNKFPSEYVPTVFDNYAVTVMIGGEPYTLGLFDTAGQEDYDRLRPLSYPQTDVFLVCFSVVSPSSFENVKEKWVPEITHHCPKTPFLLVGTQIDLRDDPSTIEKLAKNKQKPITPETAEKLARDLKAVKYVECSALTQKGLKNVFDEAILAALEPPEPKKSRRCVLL

SMILES	percent activity (GTP binding)
COC(=O)c1ccc(C2C(Oc3ccc(OC)cc3)C(=O)N2CCc2ccc(OC)c(OC)c2)cc1 (centres undefined)	inconclusive: 105%
CC1CCN(S(=O)(=O)N2CCC(C(=O)NCCN3CCOCC3)CC2)CC1	inconclusive: 92%
c1ccc(-c2nnc(OCc3cccnc3)c3ccccc23)cc1	inconclusive: 95%
CC(=O)[C@@H]1[C@@H]2C(=O)N(C3CCCCC3)C(=O)[C@@H]2C2c3ccccc3C=CN21 (some centres undefined)	inconclusive: 107%
S=C(Nc1ccc2nccnc2c1)N1CCOCC1	inactive: 87%
COc1cccc(-n2nnc3c(=O)n(Cc4ccc(C)cc4)cnc32)c1	inconclusive: 95%
CO/N=C(/CS(=O)(=O)Cc1ccccc1Cl)c1ccc(Cl)cc1Cl	inconclusive: 103%
COc1cc(C(=O)O)c2ccccc2n1	inactive: 99%
Cn1c(SCC(=O)N2CCN(c3ccccc3)CC2)nnc1-c1cc2ccccc2o1	inconclusive: 96%
COc1cc(N2CCCC2)c(OC)cc1/C=C(/C#N)c1ccc(Br)cc1	inconclusive: 163%
CCOC(=O)C1CCCN(C(=O)c2cc3cc(Br)ccc3oc2=O)C1 (centres undefined)	inconclusive: 95%
CCN(CC(=O)Nc1sc2c(c1C#N)CCCC2)CC(=O)NC1CCS(=O)(=O)C1 (centres undefined)	inconclusive: 91%
FC(F)(F)c1cc(-c2cccs2)nc2nc(N3CCOCC3)sc12	inactive: 98%
Nc1cc(C(=O)O)ccc1Sc1ccccc1C(=O)O	inactive: 95%
C#CCNC(=O)C1=C[C@@H](C2CCCCC2)C[C@@H](OCCCCO)O1	inactive: 92%
Cc1nc2ccccn2c1-c1csc(Nc2cccc(O)c2)n1	inactive: 82%
CCOC(=O)C1(Cc2cccc(OC)c2)CCN(Cc2ccc(C)s2)CC1	inactive: 95%
CCOC(=O)C1CCN(CCC(=O)Nc2cccc(C)c2)CC1	inconclusive: 94%
Cc1cccc(S(=O)(=O)Nc2ccc(-c3cn4ccccc4n3)cc2)c1	inconclusive: 97%
Cc1nc(N2CCC(C)CC2)c2c(C)c(C(=O)Nc3cc(F)ccc3C)sc2n1	inactive: 92%
Cc1c(C(=O)N2CCOCC2)[nH]c2c1C(=O)CC(c1ccccc1Cl)C2 (centres undefined)	inconclusive: 94%
O=C(O)c1ccc(N2C(=O)CC(SC(=NCc3ccc4c(c3)OCO4)Nc3ccc(F)cc3)C2=O)cc1 (centres undefined)	inconclusive: 92%
O=C(Cn1cc(C(F)(F)F)ccc1=O)Nc1cccc(S(=O)(=O)N2CCOCC2)c1	inactive: 100%
COc1ccc(CCNC(=O)CSc2nc3[nH]ncc3c(=O)n2-c2ccccc2OC)cc1OC	inconclusive: 94%

SMILES	percent activity (GTP binding)
CCOC(=O)C1CCN(C(=O)CCc2ccccc2)CC1	inconclusive: 98%
C=CCn1c(-c2cccs2)nc2nc3ccccc3nc21	inconclusive: 96%
COc1ccc(N(C(=O)c2ccc(F)cc2)C2=CC3CCC(C2)N3C)cc1 (centres undefined)	inconclusive: 105%
CC(=O)NCC1CCCN(c2nc3nonc3nc2N(C)Cc2ccccc2)C1 (centres undefined)	inconclusive: 96%
Cc1[nH]c(=S)c(C#N)c(-c2ccco2)c1C(=O)N(C)C	inactive: 96%
NS(=O)(=O)c1cccc(NS(=O)(=O)c2ccc(/C=C/C(=O)OCC(=O)c3ccccc3)cc2)c1	inactive: 90%
Cc1nn(-c2ccccc2)c(C)c1C(=O)OCC(=O)N(C)C1CCS(=O)(=O)C1 (centres undefined)	inconclusive: 94%
Cc1ccccc1NC(=O)Cn1nc(-c2ccccc2)nc1-c1ccccc1	inconclusive: 108%
COc1ccc(NC(=O)c2cc(-c3ccccc3)oc2C)cc1	inconclusive: 98%
C#CCOC(=O)C[N+](C)(C)CC#Cc1ccccc1	inactive: 100%
CCN(C(=O)Cn1c(=O)oc2ccccc21)c1cccc(C(F)(F)F)c1	inconclusive: 107%
CCCCN(C)C1=CC2=CC(=C(C#N)C#N)CCC2CC1 (centres undefined)	inconclusive: 112%
CCC(C)Nc1nc(OCC(F)(F)F)nc(OCC(F)(F)F)n1 (centres undefined)	inconclusive: 105%
CCOC(=O)c1[nH]c(C)c(CN(CCc2ccc(OC)c(OC)c2)C(=O)CCCC(=O)O)c1C	inconclusive: 106%
COC(=O)c1ccccc1NC(=S)NC(NC(=O)COc1ccccc1)C(Cl)(Cl)Cl (centres undefined)	inconclusive: 106%
Cn1nc(C(=O)Nc2nnc(C3CC3)s2)c2ccccc2c1=O	inconclusive: 93%
Cc1ccc(S(=O)(=O)c2c(N)n(CCCO)c3nc4ccccc4nc23)cc1	inconclusive: 85%
CCOC(=O)Nc1nnc(-c2cccc(OC)c2)s1	inconclusive: 103%
O=C1CC(N2CCOCC2)C(=O)N1CCc1ccccc1 (centres undefined)	inconclusive: 107%
Cc1ccc(NCc2nnc(SC(C)C(=O)N/N=C/c3ccc(C)o3)n2-c2ccccc2)cc1 (centres undefined)	inconclusive: 102%
CCOC(=O)c1sc(NC(=O)C(C)Sc2nc(N)cc(=O)[nH]2)nc1C (centres undefined)	inactive: 98%
CCOC(=O)CN(C(=O)CSc1nnc2c(n1)[nH]c1ccc(F)cc12)c1ccccc1	inconclusive: 90%
Clc1ccccc1-c1ccc(CN2CCN(c3ccccc3)CC2)o1	inconclusive: 93%
CS(=O)(=O)N1CCC(C(=O)O)CC1	inconclusive: 111%

SMILES	percent activity (GTP binding)
CCOC(=O)c1ccc(NC(=S)NCCc2ccc(F)cc2)cc1	inactive: 95%
O=c1[nH]c(=O)c2ncc(-c3ccc(Cl)cc3)nc2[nH]1	inconclusive: 94%
CC(=O)Oc1ccc2c(c1)Oc1cc(OC(C)=O)ccc1C21OC(=O)c2ccccc21	inconclusive: 316%
Cc1c(/C=C/C(=O)c2ccc(C(C)C)cc2)cnn1C	inconclusive: 93%
CCOC(=O)C1CCN(CCC(=O)Nc2cccc(Cl)c2)CC1	inconclusive: 106%
Cc1ncsc1C(=O)O	inactive: 92%
Cc1ccc(N2CC(C(=O)Nc3ccccn3)CC2=O)cc1 (centres undefined)	inconclusive: 106%
CCOC(=O)c1cccc(NC(=O)CCn2nnc3ccccc32)c1	inconclusive: 104%
CCSc1ccc2nnc(-c3cccs3)n2n1	inconclusive: 91%
Cc1cccc(C)c1NC(=O)CSc1ccc([N+](=O)[O-])cn1	inconclusive: 142%
Cc1cc(C(F)(F)F)nn1Cc1n[nH]c(=S)n1-c1cccc(Cl)c1	inconclusive: 95%
CN(C)/C=N/c1nc2nccc(-c3ccccc3)n2n1	inactive: 94%
O=C(CCC(=O)Nc1ccc(F)cc1)N/N=C/c1c[nH]c2ccccc12	inconclusive: 96%
Cc1ccc(S(=O)(=O)N(C)CCCC(=O)Nc2cc(C)ccc2C)cc1	inactive: 105%
COC(=O)c1ccc(C2OCC(C)(C)CO2)cc1	inactive: 96%
O=C(N/N=C(\Cc1ncc[nH]1)c1ccccc1)c1cccnc1	inactive: 95%
Cc1ccc(C2NC(=S)NC3=C2N2CCC3CC2)cc1 (centres undefined)	inconclusive: 109%
CN(C)/C=C/C1=CC(=O)CC(C)(C)C1	inconclusive: 93%
c1ccc(-c2cc(-c3nn4c(-c5ccco5)nnc4s3)c3ccccc3n2)cc1	inconclusive: 82%
CC1CC(C)(C)NC(=S)N1CCCC(=O)Nc1ccc(F)cc1 (centres undefined)	inactive: 97%
CNCc1ccccc1Sc1cc(O)ccc1O	inconclusive: 103%
OC(c1ccc(OCc2ccccc2)cc1)c1nnc(-c2ccccc2)o1 (centres undefined)	active: 75%
O=c1c2[nH]c3ccccc3c2ncn1CCCn1ccnc1	inconclusive: 96%
CCCCC(CC(O)COCCC)C(=O)NN (centres undefined)	inconclusive: 93%

SMILES	percent activity (GTP binding)
CC(C)(C)NC(=O)NC(=O)CSc1cccc(C(F)(F)F)c1	inconclusive: 96%
Cn1c(=O)[nH]c(=O)c2c1nc(N1CCCCCC1)n2CCCSc1nnnn1-c1ccccc1	inactive: 95%
C=C(C)COc1ccc(-c2nc(N)nc(C)c2-c2ccc(OC)cc2)c(O)c1	inconclusive: 88%
COC(=O)c1ccc(CN2C(=O)NC3(CCC(C)CC3)C2=O)cc1 (centres undefined)	inactive: 95%
CC(NS(=O)(=O)c1ccccc1)C(=O)NCCc1ccccn1 (centres undefined)	inconclusive: 95%
O=S(=O)(Nc1nnc(-c2ccccc2)s1)c1ccc(Cl)cc1	inconclusive: 89%
CC(=O)C(Sc1nccc(-c2cccs2)n1)C(C)=O	inconclusive: 92%
CCOC(=O)c1c(-c2ccc(C)o2)csc1NC(=O)CSc1nncs1	inconclusive: 108%
CC(C)c1ccc(OCC(O)CN2CCN(c3ccccc3)CC2)cc1 (centres undefined)	inconclusive: 108%
CC(OC(=O)c1ccc2c(=O)n3c(nc2c1)CCCCC3)C(=O)Nc1ccc(Cl)cn1 (centres undefined)	inconclusive: 105%
O=C(Cc1ncc(C(F)(F)F)cc1Cl)NCc1ccco1	inconclusive: 91%
O=C(Nc1cccnc1)c1ccc2nc(-c3ccccc3)c(-c3ccccc3)nc2c1	inconclusive: 93%
Cc1ccccc1Nc1nn2c(=O)c3ccccc3nc2s1	inconclusive: 80%
Cc1ccc(NC(=O)CNS(=O)(=O)c2cccs2)cc1F	inconclusive: 104%
CCOC(=O)CN=C(NS(=O)(=O)c1ccc(Cl)cc1)c1ccccc1	inactive: 96%
COC(=O)c1ccccc1NC(=O)c1cc2ncc(Br)cn2n1	inconclusive: 89%
CN(/N=C/c1ccncc1)C1=NS(=O)(=O)c2ccccc21	inconclusive: 53%
Fc1ccc(/C=C\c2nccc3c2[nH]c2ccccc23)cc1	inconclusive: 94%
COc1ccc(CCNC(=S)NCc2ccc(Cl)c(Cl)c2)cc1OC	inconclusive: 92%
Cc1cc(C)c2c(N)c3cccc(C)c3nc2n1	inconclusive: 101%
Cc1ccc(NC(=O)c2ccc3c(c2)C(=O)N(Cc2cccnc2)C3=O)c(C)c1	inactive: 100%
Cc1ccc(-n2c(SCC(=O)N3CCCc4ccccc43)nnc2-c2cccnc2)c(C)c1	inconclusive: 111%
